Data as given in PubChem BioAssay AID686978 (National Center for Advancing Translational Sciences (NCATS), 2013).
Values joined by “and” are separate entries in the source; they are usually repeats but may differ in a detail not shown here. Identical values can stand only once. Among all 420,000 compounds or so, about 64,000 (15%) were called active. Inconclusive results, whose numbers are uncertain, are shown with a selection of clear calls. Calls follow the shape of the dose curve; as a rule, active = well fitted inhibition curve with a large enough effect; inconclusive = small, poorly fitted or top-dose-only effect; inactive = flat fitted curve, though single readings scatter. No potency is given beside an inconclusive call; the fits are too rough. Some compounds were tested as several samples or in several runs, with calls that do not always agree.

Test: qHTS for Inhibitors of human tyrosyl-DNA phosphodiesterase 1 (TDP1): qHTS in cells in absence of CPT; also: nearly all actives have a fitted effect of over 55% in size
Conditions: DT40 Tdp1-/- hTDP1 cells, no CPT, ATP luminescence, 48 h; activity change, negative = growth inhibition: at 46.2 µM (top of the series) unless noted
Summary of the method: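 No-CPT arm: Tdp1-/-;hTDP1 DT40 cells (400/well) plus compounds, incubated ≥48 hr at 37 °C. Readout CellTiter-Glo luminescence.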
% is scaled to controls: 0 for no effect and ±100 for the full control effect; potency is read from the fitted curve at half-maximal effect; tags tell the direction and shape of the fitted curve.

SMILES | activity change, negative = growth inhibition | Potency
COc1ccc(C(=O)N2CCN(C(=O)c3ccncc3)CC2)cc1 | inactive: -4.18% | –
CC(=O)Oc1ccc2oc(=O)c3c(c2c1)CCCN3C(=O)CN1CCN(c2ncccn2)CC1 | – | inconclusive [inhibitor, single point]
CCC(CC)NCC(O)COc1ccc(Br)cc1 (stereo unspecified) | – | active: 20.6 µM
COc1ccc(Cn2c(=O)c3oc4ccccc4c3n(CC(=O)Nc3c(C)cccc3C)c2=O)cc1 | – | active: 5.8 µM
Cc1ccc(C(=O)COC(=O)CCC(=O)Nc2ccc(Oc3ccccc3)cc2)cc1 | – | inconclusive [inhibitor, single point]
Cc1ccccc1-n1ncc(C(C)NS(=O)(=O)c2ccccc2Cl)c1C (stereo unspecified) | – | inconclusive [inhibitor, single point]
CCOC(=O)c1c(CC(C)C)csc1NC(=O)CCl | – | active: 10.3 µM
O=C(Cc1coc2cc3c(cc12)CCC3)NCC1(N2CCCCC2)CCCCC1 | – | inconclusive [inhibitor, single point]
Cc1ccc(OCCSc2nnc(-c3cccs3)o2)cc1 | – | inconclusive [inhibitor, partial curve]
Cc1nn(CCc2nn[nH]n2)c2nc(-c3ccccc3)cc(C(F)(F)F)c12 | inactive: -5.83% | –
Cc1cccc(N2O[C@H]3C=CC2CCCC3)n1 | inactive: -3.14% | –
c1ccc(-c2cn(CC3CCCCC3)nn2)cc1 | – | inactive and active: 12.6 µM
Cc1oc2cc3oc(=O)c(CCC(=O)NCCc4ccccc4F)c(C)c3cc2c1C | – | active: 23.1 µM
Cc1ccccc1C(=O)c1c[nH]c(C(=O)NCc2ccco2)c1 | – | inconclusive [inhibitor, partial curve, poor fit]
Cc1nnc(SCc2cccc3ccccc23)n(N)c1=O | – | inconclusive [inhibitor, partial curve]
CC(C)=NNc1nc(-c2ccc([N+](=O)[O-])cc2)cs1 | – | active: 20.6 µM
CC(=O)c1cccc(NC(=O)c2csc(-n3nc(C)cc3C(F)(F)F)n2)c1 | inactive: -22.2% | –
Cc1ccnc(NC(=O)C2CCN(S(=O)(=O)c3ccc(C)c(C)c3)CC2)c1 | inactive: -20.2% | –
Cc1ncsc1CCC(=O)N1CCCC(Nc2ccc(C(C)C)cc2)C1 (stereo unspecified) | – | active: 25.9 µM
Oc1ccc(N2CCN(Cc3nc4ccccc4[nH]3)CC2)cc1 | – | inconclusive [inhibitor, single point]
O=C(Nc1cc([N+](=O)[O-])ccc1F)C1CCN(S(=O)(=O)c2cccs2)CC1 | – | inconclusive [inhibitor, single point]
